The list shows a part of the results.

The labels stand for the following.
B1: PhoQ; a variant is named by its letters at X, in order, P23837 (parent)
chain: MKKLLRLFFPLSLRVRFLLATAAVVLVLSLAYGMVALIGYSVSFDKTTFRLLRGESNLFYTLAKWENNKLHVELPENIDKQSPTMTLIYDENGQLLWAQRDVPWLMKMIQPDWLKSNGFHEIEADVNDTSLLLSGDHSIQQQLQEVREDDDDAEMTHSVAVNVYPATSRMPKLTIVVVDTIPVELKSSYMVWSWFIYVLSANLLLVIPLLWVAAWWSLRPIEALAKEVRELEEHNRELLNPATTRELTSLVRNLNRLLKSERERYDKYRTTLTDLTHSLKTPLXXLQXXLRSLRSEKMSVSDAEPVMLEQISRISQQIGYYLHRASMRGGTLLSRELHPVAPLLDNLTSALNKVYQRKGVNISLDISPEISFVGEQNDFVEVMGNVLDNACKYCLEFVEISARQTDEHLYIVVEDDGPGIPLSKREVIFDRGQRVDTLRPGQGVGLAVAREITEQYEGKIVAGESMLGGARMEVIFGRQHSAPKDE

In the test the parent is B1. Nature of the test: enrichment ratio after two sorts for PhoP signalling (ratio (wild type AVST 3.29)); higher = more functional. As to conditions: with PhoP (E. coli).
In the case of ICRD, the enrichment ratio is ≤ 0.25.

Take SYNW: the enrichment ratio was ≤ 0.25.

For SEMW, the enrichment ratio was ≤ 0.25.

On to NSSH, for which the enrichment ratio was ≤ 0.25.

FDFC: the enrichment ratio is ≤ 0.25.

On to GCEK, for which the enrichment ratio was ≤ 0.25.

In the case of KVFH, the enrichment ratio is ≤ 0.25.

As for SIEE, the enrichment ratio is ≤ 0.25.

Take WVDF: the enrichment ratio was ≤ 0.25.

In the case of LTCA, the enrichment ratio is 0.438.

In the case of GEVN, the enrichment ratio is ≤ 0.25.

With SSSR, the enrichment ratio is ≤ 0.25.

With AWDV, the enrichment ratio is ≤ 0.25.

For LAFS, the enrichment ratio was ≤ 0.25.

In the case of VAML, the enrichment ratio was 7.99.

On to VMWL, for which the enrichment ratio is ≤ 0.25.

As for FPAM, the enrichment ratio was ≤ 0.25.

For the variant TSWP, the enrichment ratio is ≤ 0.25.

For NETP, the enrichment ratio was ≤ 0.25.

Regarding DEQI, the enrichment ratio was ≤ 0.25.

Turning to QAAM, the enrichment ratio is ≤ 0.25.

Consider GNSD, for which the enrichment ratio was ≤ 0.25.

As for SHCL, the enrichment ratio stood at 7.86.

For KEKL, the enrichment ratio was ≤ 0.25.

Turning to ILWT, the enrichment ratio was ≤ 0.25.

Turning to LRHW, the enrichment ratio was 0.524.

For FLGE, the enrichment ratio was ≤ 0.25.

For the variant ILIH, the enrichment ratio was ≤ 0.25.

Turning to HEAR, the enrichment ratio was ≤ 0.25.

Turning to VYVD, the enrichment ratio is ≤ 0.25.

On to AMKN, for which the enrichment ratio was ≤ 0.25.

As for QIDF, the enrichment ratio was ≤ 0.25.

For the variant RYLD, the enrichment ratio was ≤ 0.25.

On to IKHA, for which the enrichment ratio was ≤ 0.25.

Take WPNH: the enrichment ratio was ≤ 0.25.

On to ITEE, for which the enrichment ratio is ≤ 0.25.

Regarding MSCC, the enrichment ratio amounted to 2.48.

With ERPV, the enrichment ratio is ≤ 0.25.

QAFD: the enrichment ratio was ≤ 0.25.

With TDQW, the enrichment ratio was ≤ 0.25.

On to LGQR, for which the enrichment ratio was ≤ 0.25.

With SFTS, the enrichment ratio is ≤ 0.25.

On to YGDP, for which the enrichment ratio was ≤ 0.25.

MHSS: the enrichment ratio is ≤ 0.25.

Consider TSMD, for which the enrichment ratio was 10.7.

For the variant AKPR, the enrichment ratio was ≤ 0.25.

For KEIP, the enrichment ratio is ≤ 0.25.

Turning to FTQL, the enrichment ratio is ≤ 0.25.

Regarding EVWR, the enrichment ratio is ≤ 0.25.

For CHHY, the enrichment ratio is ≤ 0.25.

In the case of PRVW, the enrichment ratio is ≤ 0.25.

As for EMIM, the enrichment ratio was ≤ 0.25.

Regarding IRDW, the enrichment ratio is ≤ 0.25.

In the case of PPNP, the enrichment ratio is ≤ 0.25.

With RVPN, the enrichment ratio is ≤ 0.25.

With GAPQ, the enrichment ratio was ≤ 0.25.

Take MMQY: the enrichment ratio was ≤ 0.25.

Regarding IRWM, the enrichment ratio is ≤ 0.25.

NLIC: the enrichment ratio is ≤ 0.25.

On to THGS, for which the enrichment ratio was ≤ 0.25.

Consider LEEE, for which the enrichment ratio is ≤ 0.25.

Regarding ATDS, the enrichment ratio is ≤ 0.25.

For SIRL, the enrichment ratio was ≤ 0.25.

Consider ILPC, for which the enrichment ratio is ≤ 0.25.

Turning to GITK, the enrichment ratio came to 16.

DFKC: the enrichment ratio was ≤ 0.25.

Take KFAS: the enrichment ratio is ≤ 0.25.

On to TDRH, for which the enrichment ratio was ≤ 0.25.

With MYTN, the enrichment ratio is ≤ 0.25.

As for ARLP, the enrichment ratio was ≤ 0.25.

As for RHNW, the enrichment ratio is ≤ 0.25.

For the variant PTVK, the enrichment ratio is ≤ 0.25.

As to NEFG, the enrichment ratio was ≤ 0.25.

As to LMFM, the enrichment ratio was ≤ 0.25.

For DWYR, the enrichment ratio was ≤ 0.25.

Consider ESIY, for which the enrichment ratio is ≤ 0.25.

On to IYGK, for which the enrichment ratio was ≤ 0.25.

Consider FIVE, for which the enrichment ratio was ≤ 0.25.

Turning to LEDL, the enrichment ratio is ≤ 0.25.

WFKS: the enrichment ratio is ≤ 0.25.

As to FFIT, the enrichment ratio is ≤ 0.25.

On to FGQA, for which the enrichment ratio was ≤ 0.25.

For the variant MLGL, the enrichment ratio is ≤ 0.25.

With TGPK, the enrichment ratio was ≤ 0.25.

Source of the values: a collection of fitness landscapes (doi:10.1126/science.1257360).
